Values marked as one replicate rest on one cluster of the flow cell; about a third of the high ones do not repeat.
The sequences below were run on ATP (assay: switch fluorescence ratio, 500 uM ATP over buffer (Cy3 cluster intensity, sum of 5 cycles each) (fold (ratio)); higher = stronger signal-on switching upon ATP binding; sequences stand for … in TCGTCGGCAGCGTCAGATGTGTATAAGAGACAGTTTTTTTTTTTTTTTTTTTTTTTTT…TC). Details: aptamer strand: ATP DNA aptamer (quencher-CACCTGGGGGAGTATTGCGGAGGAAGG + anchor), 100 nM annealed; ATP concentration: 500 uM; one replicate.
In short: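 Values give the fluorescence ratio for each switch-domain sequence, averaged from per-cluster ratios of summed target-cycle to summed buffer-cycle Cy3 intensity. The Cy3-labelled switching-strand clusters sat on a modified Illumina MiSeq flow-cell, were annealed to 100 nM quencher-labelled ATP aptamer, and were imaged in selection buffer, then after 15 min with 500 uM ATP at 22 °C. Five cycles ran with NaOH stripping and re-annealing between them, and clusters outside 100-1000 RFU were excluded.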
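Also: ATP exposure 15 min at 22 °C before imaging.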

Sequence | switch fluorescence ratio
ACGGGTCTTG | 1.03
ACGGGTGATG | 0.985
ACGGGTTTCA | 1.01
ACGGTAAATA | 1.03
ACGGTAGTTA | 0.975
ACGGTGGCTC | 0.934
ACGGTGTCCC | 0.979
ACGGTTACTG | 1.02
ACGTACAGGG | 1.51
ACGTACCGTG | 1.57
ACGTACCTGG | 1.74
ACGTACTCGG | 1.7
ACGTAGGAGG | 1.06
ACGTAGGTAG | 1
ACGTATACGC | 1.1
ACGTATAGCG | 0.969
ACGTATATAA | 1.14
ACGTATCTTA | 1.1
ACGTATGTGG | 1.08
ACGTATTACG | 1
ACGTATTTGA | 1.14
ACGTCACTTT | 1.52
ACGTCCACGG | 1.16
ACGTCCAGTG | 1.17
ACGTCGGGTT | 1.13

Sequence | switch fluorescence ratio
ACGTGACGAG | 0.98
ACGTGAGGCG | 1.02
ACGTGCAGGG | 1.03
ACGTGCATGG | 0.979
ACGTGCGCGG | 1.06
ACGTGTTGC | 1.01
ACGTTCGTGA | 1.02
ACGTTGTGTC | 0.982
ACGTTTGTGC | 0.966
ACGTTTTGC | 1
ACTAAAGAAG | 1.03
ACTAAATGAT | 1.02
ACTAAATTAC | 1.13
ACTAACGGAA | 1.07
ACTAACTGCG | 1.09
ACTAAGACCA | 1.06
ACTAAGCCGT | 1.06
ACTAATAGGT | 1.02
ACTAATATT | 1.03
ACTAATTTCA | 1.06
ACTACACTGC | 1.33
ACTACATCGG | 1.03
ACTACGAAGT | 1
ACTACGAATC | 2.2
ACTACGGTGT | 1.14

Sequence | switch fluorescence ratio
ACTAGAAAAG | 1
ACTAGAGATA | 1.02
ACTAGCAGTT | 1.01
ACTAGCGGTG | 1.03
ACTAGGATTG | 1.02
ACTAGGGGCC | 1.05
ACTAGTAGAT | 0.978
ACTAGTGAGT | 1.04
ACTAGTTGAA | 1.01
ACTATAAT | 1.08
ACTATCCACA | 1.07
ACTATGACGG | 1.03
ACTATGGACC | 1.04
ACTATTAGGA | 1.03
ACTCACTTCG | 1.12
ACTCAGGAG | 0.999
ACTCATAAGC | 1.02
ACTCATTCCA | 1.02
ACTCCACAAA | 3.63
ACTCCACTTC | 1.53
ACTCCGAGGG | 2.15
ACTCCGTGGT | 4.86
ACTCCTGTTG | 1.08
ACTCCTTACT | 1.47
ACTCCTTGGA | 1.03

Sequence | switch fluorescence ratio
ACTCGAGATT | 1.04
ACTCGGACGA | 1.04
ACTCGGGTGT | 1.31
ACTCGGTAGG | 0.973
ACTCGGTGGT | 1.02
ACTCTATC | 1.1
ACTCTCCAG | 1.25
ACTCTCTCCC | 1.18
ACTCTTGACG | 0.951
ACTCTTGGCG | 1.01
ACTGAACCAT | 1.19
ACTGAAGTGA | 1.02
ACTGAGTATC | 1.01
ACTGATAGGA | 1.07
ACTGCAGCTT | 1.06
ACTGCCAAAG | 1.02
ACTGCCGGGA | 1.02
ACTGCGCTTA | 2.41
ACTGCGTTCG | 1.03
ACTGCTAACC | 1.13
ACTGGTAACA | 1.03
ACTGGTGAAA | 1.05
ACTGGTGGGG | 1.03
ACTGTAGGGT | 1.08
ACTGTATAG | 1.02

— the supplement of paper PMC10126150
